Hit rate of the full screen: of about 200,000 compounds, about 4,500 (2.2%) were called active. This list was built around the results that the source calls inconclusive (neither active nor inactive); the mix of calls is not that of the screen. The call rests on the fitted dose curve; in most records, active means well fitted inhibition curve with a large enough effect; inconclusive means small, poorly fitted or top-dose-only effect, or effect the other way; inactive means flat fitted curve, though single readings scatter. Potencies of inconclusive entries are doubtful fits and often do not repeat.
Target: Cruzipain (Trypanosoma cruzi) (UniProt P25779)
UniProt P25779, sequence (P25779 whole entry, looked up): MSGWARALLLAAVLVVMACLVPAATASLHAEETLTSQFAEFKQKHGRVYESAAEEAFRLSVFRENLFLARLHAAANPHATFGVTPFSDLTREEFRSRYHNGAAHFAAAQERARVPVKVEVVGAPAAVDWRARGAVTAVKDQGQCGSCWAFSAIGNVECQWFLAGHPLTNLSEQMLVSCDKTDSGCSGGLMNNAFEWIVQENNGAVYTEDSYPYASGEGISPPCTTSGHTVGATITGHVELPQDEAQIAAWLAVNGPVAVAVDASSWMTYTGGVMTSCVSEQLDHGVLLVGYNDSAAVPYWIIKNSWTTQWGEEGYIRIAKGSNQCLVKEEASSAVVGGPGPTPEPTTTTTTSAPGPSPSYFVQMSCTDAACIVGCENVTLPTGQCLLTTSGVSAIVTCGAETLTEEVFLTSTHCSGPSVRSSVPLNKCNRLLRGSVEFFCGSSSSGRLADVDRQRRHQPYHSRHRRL
Assay: qHTS Assay for Promiscuous and Specific Inhibitors of Cruzain (without detergent); further: nearly all actives have a fitted effect of over 40% in size;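 on max response, negative = inhibition: plate controls were enzyme without inhibitor for no effect and buffer without enzyme for full effect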
Details: purified cruzain, Z-FR-AMC fluorescence, no detergent
Summary of the method: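 Purified cruzain at 1.5 nM, pre-incubated 15 min with compound at room temperature in 100 mM sodium acetate pH 5.5, 5 mM DTT, 0.00005% Triton X-100. Reaction started with 2 uM Z-FR-AMC; AMC fluorescence increase over 60 s gives rate.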
Potency means the concentration at half of the fitted maximal effect; tags describe the fitted curve by direction and shape.

Row | SMILES | Potency | max response, negative = inhibition
1 | COc1ccc(C(=O)C(C)Oc2cccc(NC(=O)c3cccc([N+](=O)[O-])c3)c2)cc1 (configuration not stated) | inconclusive: 39.8 µM [inhibitor, single point] | 
2 | NC(=O)[C@@H]1CCCCNc2c(I)cc([N+](=O)[O-])cc2C(=O)N[C@@H](CCC(=O)O)C(=O)N[C@@H](CO)C(=O)N1 | inconclusive: 31.6 µM [activator, single point] | 
3 | Cc1occc1-c1nnc(SCC(=O)N2c3ccccc3CCc3ccccc32)n1C |  | inactive: 0.357%
4 | C[C@@H]1CC[C@]2(C(=O)O)CC[C@]3(C)C(=CCC4[C@@]5(C)C[C@@H](O)[C@H](O)[C@@](C)(CO)C5CC[C@]43C)C2[C@H]1C (some centres not stated) | inconclusive: 28.2 µM [activator, single point] | 
5 | O=C(c1cc2ccc3cccnc3c2[nH]1)N1CCN(c2cccc(Cl)c2)CC1 | inconclusive: 39.8 µM [inhibitor, single point] | 
6 | CC1(C)Cc2c(c(-c3ccco3)nc3sc4c(NCC5CCCO5)ncnc4c23)CO1 (configuration not stated) | inconclusive: 20 µM [activator, partial curve] | 
7 | O=C1CN(C(=O)COC(=O)C2CCN(S(=O)(=O)c3ccccc3C(F)(F)F)CC2)c2ccccc2N1 | inconclusive: 39.8 µM [activator, single point] | 
8 | CC(C)C(=O)Nc1sc2c(c1-c1nc3ccccc3[nH]1)CCCC2 | active: 20 µM | 
9 | COc1cc(OC)cc(C(=O)NCCc2csc(-c3ccc(C(F)(F)F)cc3)n2)c1 | inconclusive: 25.1 µM [activator, partial curve] | 
10 | COc1ccccc1NC(=O)c1sc2nc(C)c(C(=O)Nc3ccc(C)cc3C)c(-c3ccccc3Cl)c2c1N | inconclusive: 7.94 µM [inhibitor, single point] | 
11 | CCC(=O)Nc1sc2c(c1C(=O)Nc1ccc(Br)cc1)CCCCC2 |  | inactive: 7.86%
12 | Cc1ccc2cc(C(c3nnnn3Cc3ccccc3)N3CCc4ccccc43)c(=O)[nH]c2c1 (configuration not stated) | inconclusive: 25.1 µM [inhibitor, single point] | 
13 | CCOc1ccc2[nH]c(=O)c(CN(Cc3nnnn3CCc3ccccc3)CC3CCCO3)cc2c1 (configuration not stated) | inconclusive: 39.8 µM [activator, single point] | 
14 | CCCc1sc(N)nc1-c1ccc(Cl)cc1 |  | inactive: 1.85%
15 | N#CCCn1cc(C(=O)Nc2ccccc2Br)c(-c2ccc([N+](=O)[O-])cc2)n1 | inconclusive: 31.6 µM [inhibitor, single point] | 
16 | COCCCNc1nc(NCc2ccc(C)cc2)c2cnn(C)c2n1 |  | inactive: -0.968%
17 | Cc1cccc(N2CCN(C(=O)c3cc4ccc5cccnc5c4[nH]3)CC2C)c1 (configuration not stated) | active: 12.6 µM | 
18 | CC(C)CCC[C@@H](C)[C@H]1CC[C@H]2[C@@H]3CC=C4C[C@@H](O)CC[C@]4(C)[C@H]3CC[C@]12C |  | inactive: 2.83%
19 | CCC(=O)N1c2ccc(C)cc2C2=NNC(=S)NC21O (configuration not stated) | active: 0.631 µM | 
20 | CCCOc1cccc(C2c3c(oc4ccc(F)cc4c3=O)C(=O)N2c2nc(C)c(C(C)=O)s2)c1 (configuration not stated) |  | inactive: 14.7%
21 | O=S(=O)(c1ccc2c(c1)nc(COc1ccc(Cl)cc1)n2CC1CCCO1)N1CCOCC1 (configuration not stated) | inconclusive: 39.8 µM [activator, single point] | 

Row | SMILES | Potency | max response, negative = inhibition
22 | COc1ccc(C2(C)NC(=O)N(CC(=O)Nc3ccc4c(c3)OCO4)C2=O)cc1OC (configuration not stated) | inconclusive: 25.1 µM [inhibitor, single point] | 
23 | Cc1ccc(-c2nc(N/N=C/c3cccnc3)c3ccccc3n2)cc1 | inconclusive: 39.8 µM [activator, single point] | 
24 | O=C(CCC(=O)N1CCN(S(=O)(=O)c2ccc(Cl)cc2)CC1)Nc1ccc(Cl)cc1Cl | inconclusive: 39.8 µM [activator, single point] | 
25 | COc1ccc(CCNC(=O)c2ccc(Cn3c(=O)[nH]c4cc(OC)c(OC)cc4c3=O)cc2)cc1OC | inconclusive: 3.98 µM [activator, full curve, poor fit] | 
26 | COc1ccc(-c2nc3cnc(N4CCOCC4)nc3n(-c3ccc(OC)cc3)c2=O)cc1 | inconclusive: 6.31 µM [inhibitor, partial curve] | 
27 | CC(=O)Nc1ccc(-c2cc(-c3ccc(NC(C)=O)cc3)nc(-c3ccc(NC(C)=O)cc3)n2)cc1 | active: 31.6 µM | 
28 | Cc1cc(C)n(-c2nc3ccccc3nc2Nc2ccc(CC(=O)O)cc2)n1 | inconclusive: 6.31 µM [activator, single point] | 
29 | COc1ccc(C(=O)Cn2c(C(=O)/C=C/c3ccccc3)nc3ccccc32)cc1 | inconclusive: 31.6 µM [inhibitor, single point] | 
30 | O=C(Nc1ccc2c(c1)nc1n2CCN(Cc2ccccc2)C1)NC1CCCCC1 | inconclusive: 15.8 µM [inhibitor, partial curve, poor fit] | 
31 | O=C(N/N=C/c1ccsc1)c1cc(-c2cccs2)nc2ccccc12 | inconclusive: 39.8 µM [inhibitor, single point] | 
32 | O=C1OCCN1C(=O)[C@H]1[C@H](c2ccc(F)cc2)C(c2ccccc2)=NN1c1ccc(Br)cc1 | active: 22.4 µM | 
33 | Cc1cccc(Oc2sc(C(=O)c3ccccc3)c(N)c2C#N)c1C | inconclusive: 31.6 µM [inhibitor, single point] | 
34 | CC(C)OCCCNC(=O)CCCN1C(=O)CCn2nc(-c3cccn3C)cc21 | inconclusive: 39.8 µM [activator, single point] | 
35 | Cc1ccc(O)c(-c2n[nH]c3c2C(c2ccc(F)cc2)N(Cc2ccco2)C3=O)c1 (configuration not stated) | inconclusive: 39.8 µM [inhibitor, single point] | 
36 | COc1ccc(-c2cc(C(F)(F)F)nc(NCc3ccc(F)cc3)n2)cc1 | inconclusive: 39.8 µM [inhibitor, single point] | 
37 | O=C(c1ccc(COc2ccccc2Br)o1)N1CCN(c2ccccn2)CC1 | inconclusive: 31.6 µM [activator, single point] | 
38 | Cc1ccc(C(=O)COC(=O)CCC(=O)NC2CCCCC2)cc1C | inconclusive: 1.58 µM [inhibitor, partial curve] | 
39 | Cc1cccc(CN2C(=O)N/C(=C/c3cc(C)n(-c4cc(C)ccn4)c3C)C2=O)c1 | inconclusive: 31.6 µM [inhibitor, single point] | 
40 | CC(=O)c1ccsc1-c1c(C)cc2oc(=O)cc(-c3ccccc3)c2c1C | active: 35.5 µM | 
41 | Cc1c(N=C=O)cccc1N=C=O |  | inactive: -13.8%
42 | Cc1ccc(S(=O)(=O)c2cc3cc(C(=O)Nc4ccc(C)cc4C)ccc3oc2=O)cc1 |  | inactive: -1.62%

Row | SMILES | Potency | max response, negative = inhibition
43 | CCc1ccc(/C=C2\CN(CC)Cc3c2nc2ccccc2c3C(=O)O)cc1 | inconclusive: 31.6 µM [inhibitor, single point] | 
44 | CCN(CC)S(=O)(=O)c1ccc(-c2nnc(SCC(=O)N3CCc4ccccc43)o2)cc1 |  | inactive: -1.16%
45 | O=C(CSc1nnc(-c2cccnc2)n1Cc1ccco1)N1c2ccccc2Sc2ccccc21 | inconclusive: 39.8 µM [activator, single point] | 
46 | CCOc1ccc(S(=O)(=O)N(C)c2ccc(OCC(=O)Nc3nc(-c4cc(OC)ccc4OC)cs3)cc2)cc1 | active: 7.94 µM | 
47 | COc1ccc(NC(=S)Nc2ccc(N)c([N+](=O)[O-])c2)cc1 | inconclusive: 20 µM [inhibitor, partial curve, poor fit] | 
48 | O=c1cc(O)c(-c2ccccc2Cl)c(Cl)[nH]1 | inconclusive: 39.8 µM [activator, single point] | 
49 | CCC(=O)N(CC)C1=C(O)c2ccccc2C(=O)C1=O |  | inactive: 3.3%
50 | COc1ccccc1N1CCN(C(=O)c2cc(-c3ccc(Cl)c(Cl)c3)on2)CC1 | active: 25.1 µM | 
51 | Cc1cccc(CNC(=O)CN2C(=O)CCn3nc(-c4cn(C)c5ccccc45)cc32)c1 | inconclusive: 31.6 µM [activator, partial curve] | 
52 | Cc1ccc(SCc2nc(-c3ccc(C(=O)NCC(C)c4ccccc4)cc3)oc2C)cc1 (configuration not stated) | inconclusive: 31.6 µM [inhibitor, single point] | 
53 | CC(=O)c1ccc(OCc2cc(=O)n3ccsc3n2)cc1 | inconclusive: 39.8 µM [inhibitor, single point] | 
54 | Nc1c(-c2nc(-c3ccc4c(c3)OCO4)cs2)c2ccccn2c1C(=O)c1ccc(Cl)cc1 | inconclusive: 1 µM [inhibitor, full curve, poor fit] | 
55 | COC(=O)c1ccc2c(c1)N(Cc1ccccc1)C(=O)c1ccccc1S2(=O)=O |  | inactive: -7.9%
56 | COc1cccc(C2C=C(c3ccc(Br)s3)Nc3ncnn32)c1OC (configuration not stated) | inconclusive: 39.8 µM [activator, single point] | 
57 | Cc1cccc2cc(C(c3nnnn3CC3CCCO3)N3CCc4ccccc4C3)c(=O)[nH]c12 (configuration not stated) |  | inactive: 8.18%
58 | O=c1[nH]c(-c2ccccc2O)nc2c1CCCC2 | inconclusive: 31.6 µM [inhibitor, single point] | 
59 | O=C(/C=C/c1cccs1)c1cc(Br)ccc1OC(=O)N1CCOCC1 | inconclusive: 31.6 µM [activator, single point] | 
60 | COc1cc(NS(=O)(=O)c2ccc(-c3cc(C)no3)cc2)cc(OC)c1 |  | inactive: -3.98%
61 | Cc1ccc(/C=c2\sc3n(c2=O)CN(c2ccc(Br)cc2)CN=3)o1 | inconclusive: 31.6 µM [inhibitor, single point] | 
62 | N/C(=N\OC(=O)c1cccc(Br)c1)c1ccc(Br)cc1 | inconclusive: 39.8 µM [inhibitor, single point] | 

Source: PubChem BioAssay AID1476 (National Center for Advancing Translational Sciences (NCATS), 2009)
